Here are results for 23 compounds from ChEMBL document CHEMBL4888484, “Replenishing the malaria drug discovery pipeline: Screening and hit evaluation of the MMV Hit Generation Library 1 (HGL1) against asexual blood stage Plasmodium falciparum ,using a nano luciferase reporter read-out” (2022).

About 540 (0.36%) of roughly 150,000 compounds showed an effect of 50% or more. Some of the results follow.

This assay deals with Plasmodium falciparum. Nature of the assay: Primary screen in NF54 nanoGlo assay, in single point, at 2uM, 72h; a lower Z score goes with more inhibition. Format: functional, Erythrocyte. Conditions: timepoint 72 hour.
What is called % Inhibition is the relative decrease from the control value, in per cent. As to `CCC(=O)Nc1c(C)nc(N2CCN(C)CC2)nc1C`, the “% Inhibition” value is 0% and the Z score is given as -0.05.

On to `O=C(c1[nH]nc(C2CC2)c1Br)N1CCCCC1`, for which the “% Inhibition” value is -3% and the Z score is 0.34.

As to `COc1ccc(N2C[C@@H](C(=O)N(C)c3ncccc3F)CC2=O)cc1`, the “% Inhibition” value turned out to be 7% and the Z score is given as -0.95.

Take `Cc1cc(C(=O)N2CCC[C@@](CO)(CC3CC3)C2)ccc1N1CCOCC1`: the “% Inhibition” value is given as -4% and the Z score was 0.59.

With `COCCCN1C(=O)C[C@](CC(=O)N(C)C(C2CC2)C2CC2)(c2ccccc2OC)C1=O`, the “% Inhibition” value is on record as -9% and the Z score is recorded as 1.7.

As to `CCC(C(=O)N1C[C@@H](OC)C[C@H]1CO)c1ccccc1` (stereo partly specified), the “% Inhibition” value worked out at 9% and the Z score is listed as -1.73.

Regarding `O=C(C1CCC1)N1CCS(=O)(=O)CC1`, the “% Inhibition” value was -12% and the Z score worked out at 1.59.

On to `Cc1ccc(NC(=O)N2CCC3(CC2)C(=O)N(CC(=O)N2CCCCC2)CN3c2ccccc2)cc1Cl`, for which the “% Inhibition” value is -11% and the Z score is 1.49.

With `COc1ccc(-n2nc(C3CC3)c3c(C(=O)O)cc(C(C)C)nc32)cc1`, the “% Inhibition” value is listed as -39% and the Z score stood at 4.55.

Consider `COc1cccc(C2=Nc3cccnc3N(CC(=O)NCc3ccc(F)cc3)C(=O)C2)c1`, for which the “% Inhibition” value was -17% and the Z score was 2.69.

For `COc1ccccc1NC(=O)N1CCCCC2CCCCC21` (stereo unspecified), the “% Inhibition” value was -12% and the Z score was determined as 1.22.

For `Nc1c(C(=O)Nc2ccccc2)sc(=S)n1Cc1ccccc1`, the “% Inhibition” value worked out at 6% and the Z score was -0.78.

Consider `Cc1nc[nH]c1C(=O)NC[C@H]1CCCN(c2ccncc2)C1`, for which the “% Inhibition” value was -19% and the Z score stood at 1.63.

Consider `O=C(N[C@H]1CCCCNC1=O)c1cc(C2CC2)[nH]n1`, for which the “% Inhibition” value turned out to be 3% and the Z score is -0.45.

With `CN(C)C1(CNc2c(F)cc(C#N)cc2F)CCOCC1`, the “% Inhibition” value came out at 6% and the Z score is recorded as -1.12.

As for `COc1cccc(C(=O)N(Cc2csc(COc3cc(C)cc(C)c3)n2)C2CC2)c1`, the “% Inhibition” value is on record as -12% and the Z score amounted to 1.63.

Turning to `O=C(C[C@H]1CCC(F)(F)C1)Nc1ccc(O)cc1Br`, the “% Inhibition” value was -9% and the Z score came to 1.41.

For the compound `Cc1ccc(N(C(=O)[C@@H]2C[C@H]2c2cnn(C)c2)C2CCCCC2)nc1`, the “% Inhibition” value is -9% and the Z score is listed as 1.81.

With `C[C@H]1CN(S(=O)(=O)c2cccc3c2OCC3)Cc2ccccc2O1`, the “% Inhibition” value is recorded as -7% and the Z score is 1.09.

Turning to `COc1cccc([C@@H]2CC(=O)c3cc4c(cc3N2)OCO4)c1`, the “% Inhibition” value is on record as -4% and the Z score amounted to 0.49.

As for `O=C(NC1CCCN(C(=O)C2CCC(C3CC3)N2)C1)c1ccc2ccccc2c1` (stereo unspecified), the “% Inhibition” value is 9% and the Z score is -1.4.

With `O=C(c1ccccc1-c1nnn[nH]1)N1CCc2[nH]c(-c3cccnc3)nc2C1`, the “% Inhibition” value was -4% and the Z score was determined as 0.66.

In the case of `CN1CCN([C@H]2CCN(c3nccc4ccccc34)C2)CC1`, the “% Inhibition” value is -9% and the Z score is 0.83.
